These are yes or no findings as the source states them, for the method shown. In cells and extracts the contact can be indirect. Some results given as binding are weak or reduced against the parent protein; the word gives no strength. Tags and fused reporters may be left off the sequences shown.
Columns and labels:
[1] = molecular target: T1, FLAG-tagged SMCR8 (Smith-Magenis Syndrome Chromosome Region, Candidate 8) (UniProt Q8TEV9); test: co-IP; tagged test protein cotransfected with FL-SMCR8 or empty vector in HEK 293T; lysis buffer 160 mM NaCl, 50 mM Tris, 1 mM EDTA, 0.25% NP40; IP on α-FLAG agarose with or without 50 μg/ml RNases; Western blot
T1 sequence: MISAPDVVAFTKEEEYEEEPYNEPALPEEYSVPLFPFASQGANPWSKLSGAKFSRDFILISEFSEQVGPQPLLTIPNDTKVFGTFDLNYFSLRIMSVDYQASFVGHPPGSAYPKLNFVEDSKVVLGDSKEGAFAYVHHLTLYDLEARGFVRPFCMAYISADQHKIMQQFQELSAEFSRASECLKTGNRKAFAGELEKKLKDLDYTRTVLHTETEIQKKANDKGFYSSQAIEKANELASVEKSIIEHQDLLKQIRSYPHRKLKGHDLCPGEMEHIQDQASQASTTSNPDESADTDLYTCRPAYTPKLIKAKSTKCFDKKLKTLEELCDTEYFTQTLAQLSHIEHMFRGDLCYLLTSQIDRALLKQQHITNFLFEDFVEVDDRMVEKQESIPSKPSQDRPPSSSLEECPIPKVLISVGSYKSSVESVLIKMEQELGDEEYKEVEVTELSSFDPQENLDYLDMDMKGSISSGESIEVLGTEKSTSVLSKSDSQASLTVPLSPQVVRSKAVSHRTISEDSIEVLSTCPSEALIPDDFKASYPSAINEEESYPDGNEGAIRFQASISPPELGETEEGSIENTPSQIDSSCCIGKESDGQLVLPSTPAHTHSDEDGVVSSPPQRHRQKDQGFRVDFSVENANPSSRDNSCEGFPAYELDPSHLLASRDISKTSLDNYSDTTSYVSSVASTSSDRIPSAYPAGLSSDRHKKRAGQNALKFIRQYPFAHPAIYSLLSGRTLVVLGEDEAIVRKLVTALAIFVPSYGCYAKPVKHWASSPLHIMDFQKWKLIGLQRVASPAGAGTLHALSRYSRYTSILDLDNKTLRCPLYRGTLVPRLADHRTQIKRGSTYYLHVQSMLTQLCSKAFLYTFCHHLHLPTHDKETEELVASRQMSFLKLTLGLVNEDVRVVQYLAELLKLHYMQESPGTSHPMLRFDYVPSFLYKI

Amino acid sequences for entries named in this document (tags omitted).
UniProt P51149: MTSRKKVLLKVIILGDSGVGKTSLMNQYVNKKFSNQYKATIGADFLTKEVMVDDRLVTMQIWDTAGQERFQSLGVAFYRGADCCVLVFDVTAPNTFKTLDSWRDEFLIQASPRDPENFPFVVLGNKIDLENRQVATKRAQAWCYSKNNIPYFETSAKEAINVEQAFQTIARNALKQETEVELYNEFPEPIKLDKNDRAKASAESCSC
UniProt Q13283: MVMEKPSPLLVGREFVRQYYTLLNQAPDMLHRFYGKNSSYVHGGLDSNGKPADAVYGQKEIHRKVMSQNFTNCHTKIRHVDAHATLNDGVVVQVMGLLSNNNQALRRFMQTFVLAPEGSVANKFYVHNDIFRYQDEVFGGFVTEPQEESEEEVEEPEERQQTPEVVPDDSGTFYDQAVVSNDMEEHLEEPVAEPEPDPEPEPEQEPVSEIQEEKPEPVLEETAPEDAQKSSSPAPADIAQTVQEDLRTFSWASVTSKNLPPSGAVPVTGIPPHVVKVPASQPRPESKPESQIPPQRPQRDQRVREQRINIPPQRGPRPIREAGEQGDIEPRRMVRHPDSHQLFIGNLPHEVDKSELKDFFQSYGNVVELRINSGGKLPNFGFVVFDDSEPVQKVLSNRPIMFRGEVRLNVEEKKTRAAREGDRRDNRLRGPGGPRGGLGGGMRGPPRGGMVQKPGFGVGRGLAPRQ
UniProt P62820: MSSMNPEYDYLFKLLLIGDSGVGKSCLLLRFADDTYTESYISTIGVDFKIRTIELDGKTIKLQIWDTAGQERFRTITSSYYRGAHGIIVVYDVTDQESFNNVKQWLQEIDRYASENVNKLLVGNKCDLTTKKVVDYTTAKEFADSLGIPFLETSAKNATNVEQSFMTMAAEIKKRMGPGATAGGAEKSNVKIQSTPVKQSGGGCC
UniProt Q9UNE7: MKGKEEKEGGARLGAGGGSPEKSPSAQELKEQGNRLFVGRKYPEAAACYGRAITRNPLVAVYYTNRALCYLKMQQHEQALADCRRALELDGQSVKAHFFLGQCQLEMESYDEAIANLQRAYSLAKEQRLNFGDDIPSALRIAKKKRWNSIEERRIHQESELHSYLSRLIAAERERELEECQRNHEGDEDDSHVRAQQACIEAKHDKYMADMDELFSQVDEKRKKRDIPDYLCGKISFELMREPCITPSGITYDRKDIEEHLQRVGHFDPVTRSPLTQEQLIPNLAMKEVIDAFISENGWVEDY
UniProt Q13148: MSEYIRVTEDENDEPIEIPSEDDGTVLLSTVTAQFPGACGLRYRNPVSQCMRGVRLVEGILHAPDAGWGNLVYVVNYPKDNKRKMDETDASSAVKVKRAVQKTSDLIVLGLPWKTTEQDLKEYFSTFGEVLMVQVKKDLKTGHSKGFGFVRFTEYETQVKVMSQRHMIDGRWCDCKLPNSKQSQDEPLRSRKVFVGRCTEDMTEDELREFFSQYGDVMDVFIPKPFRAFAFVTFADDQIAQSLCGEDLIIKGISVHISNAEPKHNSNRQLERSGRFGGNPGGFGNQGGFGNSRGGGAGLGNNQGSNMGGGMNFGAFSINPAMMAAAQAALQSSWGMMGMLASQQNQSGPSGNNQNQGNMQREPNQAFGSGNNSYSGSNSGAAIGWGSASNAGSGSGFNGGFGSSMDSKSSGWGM

[2] = molecular target: T2, C9orf72 long isoform with C-terminal FLAG tag (human) (UniProt Q96LT7); test: co-IP; V5-RAB7A with overexpressed C9orf72, data not shown; with or without RNase
T2 sequence: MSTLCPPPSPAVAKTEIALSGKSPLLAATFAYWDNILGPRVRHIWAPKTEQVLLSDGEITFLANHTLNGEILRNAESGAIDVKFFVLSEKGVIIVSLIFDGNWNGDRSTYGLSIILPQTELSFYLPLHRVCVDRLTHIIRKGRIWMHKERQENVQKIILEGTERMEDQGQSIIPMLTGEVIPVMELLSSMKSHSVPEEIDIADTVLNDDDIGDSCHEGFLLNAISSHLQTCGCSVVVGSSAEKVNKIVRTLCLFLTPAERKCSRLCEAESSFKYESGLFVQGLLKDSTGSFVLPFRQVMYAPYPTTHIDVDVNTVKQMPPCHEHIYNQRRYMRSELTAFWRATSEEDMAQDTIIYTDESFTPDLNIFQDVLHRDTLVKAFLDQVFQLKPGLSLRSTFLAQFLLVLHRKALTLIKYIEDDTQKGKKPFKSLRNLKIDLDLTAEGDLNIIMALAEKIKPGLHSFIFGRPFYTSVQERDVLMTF

[3] = molecular target: T1, FLAG-tagged SMCR8 (Smith-Magenis Syndrome Chromosome Region, Candidate 8); test: co-IP; α-FLAG IP from lysates of HEK 293T cells transfected with the FLAG-tagged bait, Western blot of the immunoprecipitate; also in the presence of RNase
[4] = molecular target: T3, FLAG-tagged WDR41 (WD Repeat domain 41) (UniProt Q9HAD4); test: as above
T3 sequence: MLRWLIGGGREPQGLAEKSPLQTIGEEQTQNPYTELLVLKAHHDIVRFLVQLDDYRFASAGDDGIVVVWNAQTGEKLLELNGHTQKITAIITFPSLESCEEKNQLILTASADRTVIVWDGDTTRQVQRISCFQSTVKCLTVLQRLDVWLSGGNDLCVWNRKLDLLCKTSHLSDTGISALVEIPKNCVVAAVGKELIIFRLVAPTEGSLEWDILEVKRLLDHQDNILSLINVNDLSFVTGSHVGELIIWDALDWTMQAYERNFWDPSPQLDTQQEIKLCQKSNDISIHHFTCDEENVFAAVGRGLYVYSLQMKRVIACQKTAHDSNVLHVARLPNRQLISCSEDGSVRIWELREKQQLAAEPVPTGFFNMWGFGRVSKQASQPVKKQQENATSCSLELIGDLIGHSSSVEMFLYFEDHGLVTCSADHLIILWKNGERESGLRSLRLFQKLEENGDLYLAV

[5] = molecular target: T2, C9orf72 long isoform with C-terminal FLAG tag (human); test: as above
[6] = molecular target: T4, FLAG-tagged WDR41 (WD Repeat domain 41), Q9HAD4; test: as above; settings: remark: other sources report otherwise
T4 chain: T3 sequence

For V5-RAB7A (from UniProt P51149 1-207), the binding [1] was “binds weakly” and the binding [2] was “binds weakly”.

“V5-tagged G3BP1 (from UniProt Q13283 1-466)” was tested, and the binding [1] was “no binding”.

For “V5-tagged RAB1A (from UniProt P62820 1-205)”, the binding [1] was “no binding”.

“V5-tagged SQSTM1 (p62) (from UniProt Q13501 1-440)” was tested, and the binding [1] was “binds”.

“V5-tagged STUB1 (from UniProt Q9UNE7 1-303)” was tested, and the binding [1] was “binds”.

In the case of “tagged TAR DNA binding protein 43 (TDP-43) (from UniProt Q13148 1-414)”, the binding [1] is reported as “binds”.

B1: chromosome 9 open reading frame 72, long isoform, endogenous (protein, UniProt Q96LT7 1-481)
chain: T2 sequence
With B1 the binding [3] was “binds”.

B2: Smith-Magenis syndrome chromosome region, candidate 8, endogenous (protein, UniProt Q8TEV9 1-937)
chain: T1 sequence
For B2, the binding [4] was “binds” and the binding [5] was “binds”.

B3: HA-tagged SMCR8 (protein, UniProt Q8TEV9 1-937)
chain: T1 sequence
B3 was tested, and the binding [5] was “binds”.

B4: chromosome 9 open reading frame 72, long isoform, endogenous, Q96LT7 1-481 (protein)
chain: T2 sequence
In the case of B4, the binding [6] is reported as “binds”.

B5: C9orf72 short isoform, endogenous (protein, UniProt Q96LT7-2 1-222)
chain: MSTLCPPPSPAVAKTEIALSGKSPLLAATFAYWDNILGPRVRHIWAPKTEQVLLSDGEITFLANHTLNGEILRNAESGAIDVKFFVLSEKGVIIVSLIFDGNWNGDRSTYGLSIILPQTELSFYLPLHRVCVDRLTHIIRKGRIWMHKERQENVQKIILEGTERMEDQGQSIIPMLTGEVIPVMELLSSMKSHSVPEEIDIADTVLNDDDIGDSCHEGFLLK
In the case of B5, the binding [3] is reported as “no binding” and the binding [4] is reported as “no binding”.

— article PMC7364817
